Experimental data taken from US20250163048A1 (Tango Therapeutics, Inc., priority 2022, published 2025).
Read-outs that look alike come from different tables or passages of the source.

Tests used:
[1] = test system: HAP1 MTAP-intact cell line; test: SDMA in-cell western assay, HAP1 MTAP-intact; details: Homo sapiens
[2] = test system: HAP1 MTAP-deleted cell line; test: SDMA in-cell western assay, HAP1 MTAP-deleted; details: for IC50 / IC90: Homo sapiens; for Hap1 MTAP intact/deleted ratio: IC50 ratio between HAP1 MTAP-intact and HAP1 MTAP-deleted cell line
MTAP-deleted cell line = test: viability assay for the MTAP-deleted cell line; format: cell-based; details: Homo sapiens, HAP1, viability assay
[3] = HAP1, read-out: Hap1 MTAP intact IC50, SDMA in-cell western, HAP1 MTAP-intact cell line
[4] = HAP1, read-out: Hap1 MTAP deleted IC50, SDMA in-cell western, HAP1 MTAP-deleted cell line
[5] = HAP1, read-out: Hap1 MTAP deleted IC90, SDMA in-cell western, HAP1 MTAP-deleted cell line
[6] = HAP1, read-out: Hap1 MTAP intact IC50, SDMA in-cell western assay, HAP1 MTAP-intact cell line
[7] = HAP1, read-out: Hap1 MTAP deleted IC50, SDMA in-cell western assay, HAP1 MTAP-deleted cell line
[8] = HAP1, read-out: Hap1 MTAP deleted IC90, SDMA in-cell western assay, HAP1 MTAP-deleted cell line
[9] = HAP1, read-out: Hap1 MTAP intact IC50

SMILES	IC50 [1, 3] [nM]	IC50 [2, 4] [nM]	IC90 [2, 5] [nM]	Hap1 MTAP intact/deleted ratio ([2]; SDMA in-cell western)	IC50 (MTAP-deleted cell line) [nM]	IC50 [1, 6] [nM]	IC50 [2, 7] [nM]	IC90 [2, 8] [nM]	Hap1 MTAP intact/deleted ratio ([2]; SDMA in-cell western assay)	IC50 [1, 9] [nM]
C[C@H]1CC[C@H](c2ccc(C#N)cc2)N(C(=O)C(=O)Nc2cnc(N)c3cn[nH]c23)C1 [Compound 137, N-(4-amino-1H-pyrazolo[4,3-c]pyridin-7-yl)-2-((2R,5S)-2-(4-cyanophenyl)-5-methylpiperidin-1-yl)-2-oxoacetamide]	5 to 50	< 5	< 75	A (“A” indicates an IC50 ratio greater than or equal to 30 fold)	–	–	–	–	–	–
C[C@H]1CC[C@H](C2CCOCC2)N(C(=O)C(=O)Nc2cnc(N)c3cn[nH]c23)C1 [Compound 150, N-(4-amino-1H-pyrazolo[4,3-c]pyridin-7-yl)-2-((2R,5S)-5-methyl-2-(tetrahydro-2H-pyran-4-yl)piperidin-1-yl)-2-oxoacetamide]	> 50	5 to 50	> 125	A (“A” indicates an IC50 ratio greater than or equal to 30 fold)	–	–	–	–	–	–
CC1=C(c2nc3cc([C@H]4CC[C@H](C)CN4C(=O)C(=O)Nc4ccn5ccnc5c4)ccc3s2)CCN(C)C1 [Compound 125, 2-((2R,5S)-2-(2-(1,5-dimethyl-1,2,3,6-tetrahydropyridin-4-yl)benzo[d]thiazol-5-yl)-5-methylpiperidin-1-yl)-N-(imidazo[1,2-a]pyridin-7-yl)-2-oxoacetamide]	> 50	< 5	< 75	A (“A” indicates an IC50 ratio greater than or equal to 30 fold)	< 100	–	–	–	–	–
C[C@H]1CC[C@H](c2ccc3c(c2)OCC3)N(C(=O)C(=O)Nc2cnc(N)c3c2cnn3C)C1 [Compound 242]	–	–	–	–	< 100	–	–	–	–	–
C[C@H]1CC[C@H](c2cccnc2)N(C(=O)C(=O)Nc2cnc(N)c3cn[nH]c23)C1 [Compound 144, N-(4-amino-1H-pyrazolo[4,3-c]pyridin-7-yl)-2-((2R,5S)-5-methyl-2-(pyridin-3-yl)piperidin-1-yl)-2-oxoacetamide]	> 50	< 5	< 75	A (“A” indicates an IC50 ratio greater than or equal to 30 fold)	–	–	–	–	–	–
C[C@H]1CC[C@H](c2ccncc2)N(C(=O)C(=O)Nc2cnc(N)c3cn[nH]c23)C1 [Compound 185, N-(4-amino-1H-pyrazolo[4,3-c]pyridin-7-yl)-2-oxo-2-[(2R,5S)-5-methyl-2-(4-pyridyl)-1-piperidyl]acetamide]	> 50	< 5	< 75	B (“B” indicates an IC50 ratio greater than or equal to 15 fold but lower than 30 fold)	–	–	–	–	–	–
Cc1cnc2cc([C@H]3CC[C@H](C)CN3C(=O)C(=O)Nc3cnc(N)c4cn[nH]c34)ccc2c1 (racemic) [Compound 210, N-(4-Amino-1H-pyrazolo[4,3-c]pyridin-7-yl)-2-oxo-2-[rac-(2R,5S)-5-methyl-2-(3-methyl-7-quinolyl)-1-piperidyl]acetamide]	–	–	–	–	< 100	< 5	< 5	< 75	C (“C” indicates an IC50 ratio of less than 15 fold)	–
C[C@H]1CC[C@H](c2cccc(C#N)c2)N(C(=O)C(=O)Nc2cnc(N)c3cn[nH]c23)C1 [Compound 183, N-(4-amino-1H-pyrazolo[4,3-c]pyridin-7-yl)-2-((2R,5S)-2-(3-cyanophenyl)-5-methylpiperidin-1-yl)-2-oxoacetamide]	5 to 50	< 5	< 75	B (“B” indicates an IC50 ratio greater than or equal to 15 fold but lower than 30 fold)	< 100	–	–	–	–	–
CC[C@@H]1CC[C@H](C)N(C(=O)C(=O)Nc2cnc(N)c3cn[nH]c23)C1 (racemic) [Compound 223, N-(4-Amino-1H-pyrazolo[4,3-c]pyridin-7-yl)-2-oxo-2-[rac-(2S,5R)-5-ethyl-2-methyl-1-piperidyl]acetamide]	–	–	–	–	100 to 1000	> 50	< 5	–	A (“A” indicates an IC50 ratio greater than or equal to 30 fold)	–
C[C@H]1CC[C@H](c2ccccc2)N(C(=O)C(=O)Nc2cnc(N)c3cn[nH]c23)C1 [Compound 126, N-(4-amino-1H-pyrazolo[4,3-c]pyridin-7-yl)-2-oxo-2-[(2R,5S)-5-methyl-2-phenyl-1-piperidyl]acetamide]	–	–	–	–	< 100	–	–	–	–	5 to 50
C[C@H]1CC[C@H](c2ccc(O)cc2)N(C(=O)C(=O)Nc2cnc(N)c3cn[nH]c23)C1 (racemic) [Compound 229, N-(4-Amino-1H-pyrazolo[4,3-c]pyridin-7-yl)-2-oxo-2-[rac-(2R,5S)-2-(4-hydroxyphenyl)-5-methyl-1-piperidyl]acetamide]	–	–	–	–	< 100	–	–	–	–	–
C[C@H]1CC[C@H](c2ccc3sc(C4CCN(C)CC4)nc3c2)N(C(=O)C(=O)Nc2cnc(N)c3c2cnn3C)C1 [Compound 252, N-(7-Amino-1-methyl-pyrazolo[3,4-c]pyridin-4-yl)-2-oxo-2-[(2R,5S)-5-methyl-2-[2-(1-methyl-4-piperidyl)-1,3-benzothiazol-5-yl]-1-piperidyl]acetamide]	–	–	–	–	< 100	–	–	–	–	–
C[C@H]1CC[C@H](C2CC2)N(C(=O)C(=O)Nc2cnc(N)c3cn[nH]c23)C1 [Compound 277, N-(4-Amino-1H-pyrazolo[4,3-c]pyridin-7-yl)-2-oxo-2-[(2R,5S)-2-cyclopropyl-5-methyl-1-piperidyl]acetamide]	–	–	–	–	< 100	–	–	–	–	> 50
C[C@H]1CC[C@H](c2ccc(N3CCN(C)CC3)cc2)N(C(=O)C(=O)Nc2cnc(N)c3cn[nH]c23)C1 [Compound 120, N-(4-amino-1H-pyrazolo[4,3-c]pyridin-7-yl)-2-((2R,5S)-5-methyl-2-(4-(4-methylpiperazin-1-yl)phenyl)piperidin-1-yl)-2-oxoacetamide]	> 50	5 to 50	–	B (“B” indicates an IC50 ratio greater than or equal to 15 fold but lower than 30 fold)	–	–	–	–	–	–
C[C@H]1CC[C@H](c2ccc3sc([C@@H]4CCN(C)C(C)(C)C4)nc3c2)N(C(=O)C(=O)Nc2cncc3c(N)nccc23)C1 (single isomer, unassigned) [Compound 68]	> 50	< 5	< 75	A (“A” indicates an IC50 ratio greater than or equal to 30 fold)	< 100	–	–	–	–	–
Cc1ncc([C@H]2CC[C@H](C)CN2C(=O)C(=O)Nc2cnc(N)c3cn[nH]c23)o1 [Compound 177]	> 50	5 to 50	> 125	C (“C” indicates an IC50 ratio of less than 15 fold)	100 to 1000	–	–	–	–	–
C[C@H]1CC[C@H](c2ccc3sc(C4CN(C)C4)nc3c2)N(C(=O)C(=O)Nc2cnc(N)c3cn[nH]c23)C1 [Compound 107, N-(4-amino-1H-pyrazolo[4,3-c]pyridin-7-yl)-2-((2R,5S)-5-methyl-2-(2-(1-methylazetidin-3-yl)benzo[d]thiazol-5-yl)piperidin-1-yl)-2-oxoacetamide]	5 to 50	< 5	< 75	C (“C” indicates an IC50 ratio of less than 15 fold)	< 100	–	–	–	–	–
C[C@H]1CC[C@H](c2ccc3sc(CCCN(C)C)nc3c2)N(C(=O)C(=O)Nc2cnc(N)c3cn[nH]c23)C1 [Compound 278, N-(4-Amino-1H-pyrazolo[4,3-c]pyridin-7-yl)-2-oxo-2-[(2R,5S)-2-[2-[3-(dimethylamino)propyl]-1,3-benzothiazol-5-yl]-5-methyl-1-piperidyl]acetamide]	–	–	–	–	< 100	5 to 50	< 5	< 75	C (“C” indicates an IC50 ratio of less than 15 fold)	–
C[C@H]1CC[C@H](c2ccc3ccc(C4CCN(C)CC4)nc3c2)N(C(=O)C(=O)Nc2cnc(N)c3cn[nH]c23)C1 [Compound 65, N-(4-amino-1H-pyrazolo[4,3-c]pyridin-7-yl)-2-((2R,5S)-5-methyl-2-(2-(1-methylpiperidin-4-yl)quinolin-7-yl)piperidin-1-yl)-2-oxoacetamide]	5 to 50	5 to 50	< 75	C (“C” indicates an IC50 ratio of less than 15 fold)	< 100	–	–	–	–	–
CC1CN(C)CCC1c1nc2cc([C@H]3CC[C@H](C)CN3C(=O)C(=O)Nc3cnc(N)c4cn[nH]c34)ccc2s1 (stereo partly drawn) [Compound 31, N-(4-amino-1H-pyrazolo[4,3-c]pyridin-7-yl)-2-((2R,5S)-2-(2-(1,3-dimethylpiperidin-4-yl)benzo[d]thiazol-5-yl)-5-methylpiperidin-1-yl)-2-oxoacetamide]	< 5	< 5	< 75	C (“C” indicates an IC50 ratio of less than 15 fold)	< 100	–	–	–	–	–
C[C@H]1CC[C@H](c2ccc3c(c2)CCO3)N(C(=O)C(=O)Nc2cnc(N)c3c2cnn3C)C1 [Compound 248]	–	–	–	–	< 100	–	–	–	–	–
C[C@H]1CC[C@H](c2ccc3sc(C4CC5(C4)CN(C)C5)nc3c2)N(C(=O)C(=O)Nc2ccn3ccnc3c2)C1 [Compound 44, N-(imidazo[1,2-a]pyridin-7-yl)-2-((2R,5S)-5-methyl-2-(2-(2-methyl-2-azaspiro[3.3]heptan-6-yl)benzo[d]thiazol-5-yl)piperidin-1-yl)-2-oxoacetamide]	> 50	< 5	< 75	B (“B” indicates an IC50 ratio greater than or equal to 15 fold but lower than 30 fold)	< 100	–	–	–	–	–
